# Results as given in a collection of fitness landscapes (doi:10.1126/science.1257360).
# Some of the results follow.
# B1: PhoQ; a variant is named by its letters at X, in order, P23837 (parent)
# chain: MKKLLRLFFPLSLRVRFLLATAAVVLVLSLAYGMVALIGYSVSFDKTTFRLLRGESNLFYTLAKWENNKLHVELPENIDKQSPTMTLIYDENGQLLWAQRDVPWLMKMIQPDWLKSNGFHEIEADVNDTSLLLSGDHSIQQQLQEVREDDDDAEMTHSVAVNVYPATSRMPKLTIVVVDTIPVELKSSYMVWSWFIYVLSANLLLVIPLLWVAAWWSLRPIEALAKEVRELEEHNRELLNPATTRELTSLVRNLNRLLKSERERYDKYRTTLTDLTHSLKTPLXXLQXXLRSLRSEKMSVSDAEPVMLEQISRISQQIGYYLHRASMRGGTLLSRELHPVAPLLDNLTSALNKVYQRKGVNISLDISPEISFVGEQNDFVEVMGNVLDNACKYCLEFVEISARQTDEHLYIVVEDDGPGIPLSKREVIFDRGQRVDTLRPGQGVGLAVAREITEQYEGKIVAGESMLGGARMEVIFGRQHSAPKDE
# Variants of: B1
# Experiment: enrichment ratio after two sorts for PhoP signalling (ratio (wild type AVST 3.29)); higher = more functional
# Conditions: with PhoP (E. coli)
row,Variant,enrichment ratio
1,TVHW,≤ 0.25
2,QIKS,≤ 0.25
3,VPNV,≤ 0.25
4,HETS,≤ 0.25
5,LCIG,≤ 0.25
6,KSSS,≤ 0.25
7,ACKG,≤ 0.25
8,PSDK,≤ 0.25
9,MDTY,≤ 0.25
10,NSVV,≤ 0.25
11,ALYK,≤ 0.25
12,TPWK,≤ 0.25
13,KEYI,≤ 0.25
14,QDVE,≤ 0.25
15,KPKM,≤ 0.25
16,YMNW,≤ 0.25
17,DHRY,≤ 0.25
18,HPMH,≤ 0.25
19,NMWG,≤ 0.25
20,AYVP,≤ 0.25
21,YYFL,0.339
22,FSLK,0.304
23,ICRH,≤ 0.25
24,KSVS,≤ 0.25

row,Variant,enrichment ratio
1,TCHA,≤ 0.25
2,QEAI,5.29
3,SCTH,9.21
4,VTSP,≤ 0.25
5,TEYV,4.31
6,ASNY,≤ 0.25
7,ACTI,5.16
8,PVKT,≤ 0.25
9,PICF,≤ 0.25
10,GIKF,≤ 0.25
11,QQYP,≤ 0.25
12,SPLQ,≤ 0.25
13,NQYR,≤ 0.25
14,SQDP,≤ 0.25
15,DNSP,≤ 0.25
16,TQQG,16.8
17,LFYL,≤ 0.25
18,WFCM,≤ 0.25
19,DSRL,≤ 0.25
20,DRKE,≤ 0.25
21,RKCE,≤ 0.25
22,WKPG,≤ 0.25
23,QFFD,≤ 0.25
24,HERW,≤ 0.25

row,Variant,enrichment ratio
1,IERK,≤ 0.25
2,NFQA,≤ 0.25
3,DCSM,≤ 0.25
4,AHEE,≤ 0.25
5,TIPS,≤ 0.25
6,LWFG,≤ 0.25
7,EKIV,≤ 0.25
8,KKVS,≤ 0.25
9,KVWG,≤ 0.25
10,TRII,0.725
11,PECK,≤ 0.25
12,GLMG,≤ 0.25
13,RWHG,≤ 0.25
14,HHAA,≤ 0.25
15,SNEI,≤ 0.25
16,NNIA,≤ 0.25
17,GMYT,≤ 0.25
18,CLLV,≤ 0.25
19,WEMI,≤ 0.25
20,LGIF,≤ 0.25
21,YGIP,≤ 0.25
22,FVVW,≤ 0.25
23,YNGQ,≤ 0.25
24,RDVR,≤ 0.25

row,Variant,enrichment ratio
1,YFLW,≤ 0.25
2,SAIS,3.33
3,LMTI,≤ 0.25
4,LNKE,≤ 0.25
5,TKVA,18.4
6,IVIF,≤ 0.25
7,ENSY,≤ 0.25
8,PGEF,≤ 0.25
9,ALWH,≤ 0.25
10,ACAE,15.5
11,VDHH,≤ 0.25
12,MKML,≤ 0.25
13,SDEH,≤ 0.25
14,AEVH,6.64
15,MRPV,≤ 0.25
16,HGFN,≤ 0.25
17,IFHD,≤ 0.25
18,NVCV,≤ 0.25
19,TQSR,≤ 0.25
20,RMGP,≤ 0.25
21,FTIL,1.37
22,IGPV,≤ 0.25
23,QHAQ,≤ 0.25
24,TYMA,1.56

row,Variant,enrichment ratio
1,PFVQ,≤ 0.25
2,EPDY,≤ 0.25
3,PMTN,≤ 0.25
4,ELMN,≤ 0.25
5,HPMP,≤ 0.25
6,LWHA,≤ 0.25
7,RFWW,2.27
8,NVLG,≤ 0.25
9,RPEN,≤ 0.25
10,NFLY,≤ 0.25
11,PSFH,≤ 0.25
12,ACSM,13.2
13,IKAK,≤ 0.25
14,RAQT,≤ 0.25
15,KGCY,≤ 0.25
16,KNIR,≤ 0.25
17,VVGK,≤ 0.25
18,KLET,≤ 0.25
19,YVYT,≤ 0.25
20,AKLW,≤ 0.25
21,IGEA,≤ 0.25
22,FWCS,1.37
23,IWEF,≤ 0.25
24,QFIQ,≤ 0.25

row,Variant,enrichment ratio
1,TFAR,≤ 0.25
2,LAFF,0.609
3,LSFT,0.638
4,KVHI,≤ 0.25
5,GNAS,4.84
6,IWFW,≤ 0.25
7,VNLS,4.23
8,ICLP,≤ 0.25
9,VMTI,≤ 0.25
10,LIFC,≤ 0.25
11,YCIL,≤ 0.25
12,DHDA,≤ 0.25
13,KYPW,≤ 0.25
14,AECQ,30.9
15,DQCW,≤ 0.25
16,DAFA,≤ 0.25
17,RILK,≤ 0.25
18,MHYN,≤ 0.25
19,LTTM,≤ 0.25
20,VPHG,≤ 0.25
21,DWCH,≤ 0.25
22,WRKQ,≤ 0.25
23,DIDR,≤ 0.25
24,SECS,20.4

row,Variant,enrichment ratio
1,IKSC,≤ 0.25
2,NIMC,≤ 0.25
3,STYA,≤ 0.25
4,DIHT,≤ 0.25
5,ESSN,≤ 0.25
6,KVCG,≤ 0.25
7,QIVK,≤ 0.25
8,KIVI,≤ 0.25
9,FMQC,≤ 0.25
10,YCNH,≤ 0.25
11,NWHM,≤ 0.25
12,TQRT,≤ 0.25
13,MLQM,≤ 0.25
14,LGEA,≤ 0.25
15,EVFN,≤ 0.25
16,MEIC,11
17,GQYV,≤ 0.25
18,YFLG,≤ 0.25
19,THPS,≤ 0.25
20,TVVK,≤ 0.25
21,KDWE,≤ 0.25
22,SEAR,9.64
23,PKKI,≤ 0.25
24,AFGL,≤ 0.25

row,Variant,enrichment ratio
1,VTAC,≤ 0.25
2,RIGD,≤ 0.25
3,WIMA,≤ 0.25
4,HKFP,≤ 0.25
5,VHPA,≤ 0.25
6,PSSL,≤ 0.25
7,FVGH,≤ 0.25
8,SQVN,20.3
9,MNVL,2.78
10,HGHD,≤ 0.25
11,LVPQ,≤ 0.25
12,SYDT,≤ 0.25
13,LEWE,≤ 0.25
14,RKCN,≤ 0.25
15,TMKN,≤ 0.25
16,FVWA,≤ 0.25
17,AREN,≤ 0.25
18,GGSW,≤ 0.25
19,DFME,≤ 0.25
20,HYQG,≤ 0.25
21,DIQL,≤ 0.25
22,WHDW,≤ 0.25
23,NNLM,2.77
24,PTFH,≤ 0.25

row,Variant,enrichment ratio
1,TVCY,≤ 0.25
2,HTHS,≤ 0.25
3,TEKW,≤ 0.25
4,VVFK,≤ 0.25
5,YRSY,≤ 0.25
6,ETAF,≤ 0.25
7,CYFY,≤ 0.25
8,NPRI,≤ 0.25
9,NYMW,≤ 0.25
10,MFMK,≤ 0.25
11,GFSW,≤ 0.25
12,EYPM,≤ 0.25
13,WARQ,≤ 0.25
14,THLC,5.62
15,LHVE,≤ 0.25
16,FSNM,≤ 0.25
17,NLWE,≤ 0.25
18,RHRF,≤ 0.25
19,GYKL,≤ 0.25
20,CFIF,≤ 0.25
21,TDMR,5.88
22,SQKP,≤ 0.25
23,IKNC,≤ 0.25
24,LWWD,≤ 0.25

row,Variant,enrichment ratio
1,SCQN,≤ 0.25
2,DTAG,≤ 0.25
3,SKCK,≤ 0.25
4,YYKY,≤ 0.25
5,ETYY,≤ 0.25
6,VRQI,≤ 0.25
7,RYIC,≤ 0.25
8,SNQY,2.66
9,FPGM,≤ 0.25
10,MPLL,≤ 0.25
11,KDPA,≤ 0.25
12,NISP,≤ 0.25
13,DRPS,≤ 0.25
14,YQAD,≤ 0.25
15,VMPQ,≤ 0.25
16,YTPT,≤ 0.25
17,IMQY,≤ 0.25
18,HTTH,≤ 0.25
19,IKMS,≤ 0.25
20,WVTI,≤ 0.25
21,LTQH,≤ 0.25
22,FLYV,≤ 0.25
23,WTQS,≤ 0.25
24,IKPL,≤ 0.25

row,Variant,enrichment ratio
1,RWQQ,≤ 0.25
2,VLKV,≤ 0.25
3,MTIT,≤ 0.25
4,YDQI,≤ 0.25
5,VGDW,≤ 0.25
6,RGCN,≤ 0.25
7,SMKF,≤ 0.25
8,MFNN,≤ 0.25
9,WAWW,≤ 0.25
10,RKSW,≤ 0.25
11,HLCV,≤ 0.25
12,NYHC,≤ 0.25
13,QGTR,≤ 0.25
14,KEIG,≤ 0.25
15,RMIN,≤ 0.25
16,LNAK,≤ 0.25
17,WTKF,≤ 0.25
18,QTWF,≤ 0.25
19,WWAR,≤ 0.25
20,ARRM,≤ 0.25
21,SCDM,≤ 0.25
22,KVWM,≤ 0.25
23,DCEG,≤ 0.25
24,DVNH,≤ 0.25

row,Variant,enrichment ratio
1,CFLY,≤ 0.25
2,NEQK,≤ 0.25
3,IPRH,≤ 0.25
4,AKTF,2.43
5,EYYY,≤ 0.25
6,FHKE,≤ 0.25
7,DDDC,≤ 0.25
8,VMWW,≤ 0.25
9,TPVN,≤ 0.25
10,KNQR,≤ 0.25
11,EENI,≤ 0.25
12,VTYF,≤ 0.25
13,QSCR,≤ 0.25
14,HFID,≤ 0.25
15,IMMP,≤ 0.25
16,RWFC,≤ 0.25
17,GAGL,≤ 0.25
18,VQLM,5.74
19,PGDH,≤ 0.25
20,MQMI,≤ 0.25
21,ENFW,≤ 0.25
22,YAKG,≤ 0.25
23,MPLH,≤ 0.25
24,PFRS,≤ 0.25

row,Variant,enrichment ratio
1,WMSQ,≤ 0.25
2,HRNV,≤ 0.25
3,NREF,≤ 0.25
4,NNQH,≤ 0.25
5,SVDS,≤ 0.25
6,YRKH,≤ 0.25
7,PEWV,≤ 0.25
8,PMAV,≤ 0.25
9,HPHG,≤ 0.25
10,QFWY,≤ 0.25
11,YYGP,≤ 0.25
12,HEEM,≤ 0.25
13,AMLD,4.71
14,DVSE,≤ 0.25
15,VRGE,≤ 0.25
16,NTYN,≤ 0.25
17,LLKV,≤ 0.25
18,ETRY,≤ 0.25
